Data taken from the supplement of paper PMC10126150.
Values marked as one replicate rest on one cluster of the flow cell; about a third of the high ones do not repeat.

System: ATP
Assay: switch fluorescence ratio, 500 uM ATP over buffer (Cy3 cluster intensity, sum of 5 cycles each) (fold (ratio)); higher = stronger signal-on switching upon ATP binding; sequences stand for … in TCGTCGGCAGCGTCAGATGTGTATAAGAGACAGTTTTTTTTTTTTTTTTTTTTTTTTT…TC
Details: aptamer strand: ATP DNA aptamer (quencher-CACCTGGGGGAGTATTGCGGAGGAAGG + anchor), 100 nM annealed; ATP concentration: 500 uM; one replicate
Summary of the method: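 After annealing to 100 nM quencher-labelled ATP aptamer, Cy3-labelled switching-strand clusters on a modified Illumina MiSeq flow-cell were imaged in selection buffer. A second image followed after 15 min with 500 uM ATP at 22 °C, and five such buffer/ATP cycles were done, each separated by NaOH stripping and re-annealing. The fluorescence ratio, averaged per switch-domain sequence, is summed target-cycle over summed buffer-cycle Cy3 intensity per cluster, with clusters outside 100-1000 RFU excluded.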
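Further: ATP exposure 15 min at 22 °C before imaging.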

Sequence | switch fluorescence ratio
CCTTCACTTG | 1.07
CTTCATGCTC | 1.01
GACTGCTG | 0.97
TGAACGGTTT | 1.01
TCGCTGGAA | 1.04
GACGGTGGTA | 0.973
GTGAGGATCA | 1.02
GCCTCGGCGT | 0.977
CTTGGGTAGC | 0.998
GAGATAAAG | 1.02
ACCGGCCGCT | 1.08
TCTAGCGCGA | 1.28
TATAAGGCGT | 0.982
ATGCATAAAA | 1.02
ATGAGAGCCG | 1
CACTCCAGAG | 1.06
GCAAACTATC | 1.54
ATTCGTTACA | 1.04
CAGTGAGGAA | 1.02
CGTTGAGTAC | 0.979
AGTAGTCACG | 0.945
TTTGCATCAG | 0.968
GGGCGTCACA | 0.977
TCGACCGGGA | 1.08
TAATAGACTC | 1.08
TCGAAAAGTT | 1

Sequence | switch fluorescence ratio
GCAGCAGGAA | 2.15
ATACGTGCGG | 0.994
CCATAGGTCT | 1.05
TTCAGAGCCT | 1.03
GTAGAACTGT | 1.05
CACTGACAGC | 1.49
TGGAATAAAT | 0.991
TTTGACTCGC | 1.52
GTATCATGAC | 1.01
TTTCCAGAAG | 0.977
TTAGCAGGGT | 0.989
GGTTCGTAGA | 1
GCAAAACGGT | 1.03
GCTCTTTTTG | 1.01
CCTACTTGAT | 1
TGCCAAAAAT | 0.952
TGCGATACTG | 1.78
GCCCGAATTC | 1.08
ACTAATGCG | 1.05
CATGAGTGTA | 1.02
ATCAAGAGTG | 0.998
TGGTGCTAGT | 1.01
GATAATGGT | 1.04
TTGAAGCGA | 1.6
CGCTGGTCAC | 1.14
ATCGAGTGGG | 0.988

Sequence | switch fluorescence ratio
CGTGGGTACG | 0.992
GCAGCGATTG | 1.34
GTCGCGCTCA | 0.954
TTGGCACTTT | 1.09
TTAGGGGT | 1.08
CGTATGGTAT | 0.986
GAACGGGATG | 1.02
CTAGCGCCCG | 0.976
ATAGATAGAC | 0.981
AGCCTGACTA | 1.07
TTACTAGTCA | 0.999
AGTGTTGGTG | 1.03
ATGAACTTG | 1.07
TTCCTGGCTC | 1.13
AAGGGACCGA | 1
ACTCGCGGTT | 1.04
TAGTGCT | 0.953
TAGGGGCGGT | 0.977
TCTCGGGCAA | 6.84
TATCCTCTAG | 0.995
TAGATTATTT | 0.98
TAATCGTTGC | 0.983
ATACAGATGT | 0.987
TAGTGATGCA | 0.902
AACAGCGTAC | 1.46
CTCATACCTA | 1.03

Sequence | switch fluorescence ratio
GCCGTGGGCA | 1.01
TGGTCAAGGA | 0.989
CAGGTTTGGG | 0.973
CTTAGCAGGG | 1.04
CATTAGAGC | 1.04
CCAAGAAGCG | 1.06
CCATCCCTAC | 4.53
CGAATTAAGA | 0.996
GCCTATAGAT | 0.979
CGGTGCTGGT | 0.993
CACGCTCCGT | 1.07
GGGGCCTGCG | 1.02
ACATTACTGA | 1.32
TATTCCATTA | 0.997
GCGCGAAGGT | 1.04
GGAGCACGTT | 1.05
TTTGGATAGG | 1.06
TTCAAGCTGC | 2.22
GATGGAATAA | 1.11
TCCTTTACAT | 1.02
AATAGAAATG | 1.22
ACGGGAAGTT | 0.959
GAGACAGTAC | 2.83
CACCGACGTC | 1.36
GCCACATTGT | 0.998
GTGGTAAGCC | 1

Sequence | switch fluorescence ratio
CGACGAGGTG | 1.14
CTTAAGGCGG | 0.977
ATATAAGTGG | 1.03
ATAAGCAATA | 3.94
GGTTTTAAGC | 0.976
ATTATCAATG | 0.967
TGGATTCAGT | 0.987
TACCTCGGAT | 1.02
CAGAAAAGGG | 1.75
GGATTAGAGG | 0.969
CTCATTAAGA | 0.954
TGGGCGGCAC | 1
TCAGAGCGGG | 0.999
ATGAACGGTA | 0.976
TTGGTCGTGT | 0.983
ATATGACTGG | 1.05
GCACTGGTGA | 1.32
ACTCAGTGTA | 1.01
TAAGTTAAT | 0.999
TACATATAAT | 1.03
CATTAAATAT | 0.985
TTATCTGCCA | 0.992
CGAGGCGCCA | 0.967
AACGAGTTTT | 1.02
CACATAGGA | 1.01
TTTACGCACC | 1.25

Sequence | switch fluorescence ratio
ATGCCGGTAC | 1.02
GACCTTCTAT | 1.14
GGGCAGAGTG | 1.03
CTGAAAGCTT | 1.01
TCAGGTTGAG | 1.01
TGAACATACA | 1.28
GGATCCGGCA | 1.07
GTGAATACGG | 1
AGTAACTCTA | 0.985
GTGTGGACGA | 1.03
TATAGAAAC | 0.979
CCGAGGGCGA | 1.9
GACCCCACTC | 1.34
TCGTAACTTT | 1.03
TATGTCTTAG | 0.989
TGGGCATCGC | 1.03
TCGAGCCGCT | 1.01
GCTTGGTCAA | 1
GGTCTCTGTA | 1.01
TCGTCGATAT | 1.17
AGCCTCGTTC | 1.01
TGCAGATTAG | 1.1
CCGGGTCCGA | 1.03
